Experimental data published in the supplement of paper PMC12067230.
The data scatter; read single values as rough.

assay: amyloid nucleation score relative to library mode (yeast Sup35 reporter selection) (log enrichment difference); higher = more amyloid nucleation; sequences are the first 22 residues of the Bri2 peptide extended by up to 12 random residues; conditions: random library (experiment): 2;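 active = nucleation score significantly above 0 at FDR 0.05; inactive = not significantly above 0 or absent from output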
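Also: [psi-pin-] Saccharomyces cerevisiae expressing SupN fusions, induced by 100 µM Cu2SO4, selected 7 d at 30 °C without adenine and uracil, scored by deep sequencing of output versus input.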

Row | Sequence | amyloid nucleation score
1 | EASNCFAIRHFENKFAVETLICQISLNV | 6.3
2 | EASNCFAIRHFENKFAVETLICRVN | inactive
3 | EASNCFAIRHFENKFAVETLICTRYALFFGNDLR | 3.07
4 | EASNCFAIRHFENKFAVETLICNCFMPVFVFRDG | 7.77
5 | EASNCFAIRHFENKFAVETLICNAIGACVLRKAL | inactive
6 | EASNCFAIRHFENKFAVETLICFY | 0.248
7 | EASNCFAIRHFENKFAVETLICCRVNLSC | 5.98
8 | EASNCFAIRHFENKFAVETLICLFVHLD | inactive
9 | EASNCFAIRHFENKFAVETLICYPVVPIWAGPR | 6.13
10 | EASNCFAIRHFENKFAVETLICKMV | inactive
11 | EASNCFAIRHFENKFAVETLICCTE | 1.47
12 | EASNCFAIRHFENKFAVETLICLGCNSFCHHNKG | 8.69
13 | EASNCFAIRHFENKFAVETLICFDEVVCSYVNPS | inactive
14 | EASNCFAIRHFENKFAVETLICIYLNCD | 6.84
15 | EASNCFAIRHFENKFAVETLICDGNSFWNFHWWL | 4.96
16 | EASNCFAIRHFENKFAVETLICALCWGGSFSAVT | 8.26
17 | EASNCFAIRHFENKFAVETLICHWGSLNKAYAIR | inactive
18 | EASNCFAIRHFENKFAVETLICTLPYSLIALSYV | inactive

Row | Sequence | amyloid nucleation score
19 | EASNCFAIRHFENKFAVETLICMCRTCLIRSCCV | inactive
20 | EASNCFAIRHFENKFAVETLICMMSLI | inactive
21 | EASNCFAIRHFENKFAVETLICDEWMVPNKLW | inactive
22 | EASNCFAIRHFENKFAVETLICWSWIMMFHRYCW | inactive
23 | EASNCFAIRHFENKFAVETLICVARRKMRRLIHI | 0.393
24 | EASNCFAIRHFENKFAVETLICRQQLRKTNGAMA | inactive
25 | EASNCFAIRHFENKFAVETLICNCVVYADTWCWR | 7.2
26 | EASNCFAIRHFENKFAVETLICVMVG | inactive
27 | EASNCFAIRHFENKFAVETLICVYG | inactive
28 | EASNCFAIRHFENKFAVETLICILYSFYVVLFVG | inactive
29 | EASNCFAIRHFENKFAVETLICTLGYYSGRFSVL | 1.53
30 | EASNCFAIRHFENKFAVETLICLYWYG | 2.6
31 | EASNCFAIRHFENKFAVETLICGSIYDLIASWGK | 7.51
32 | EASNCFAIRHFENKFAVETLICYVIRVGNLESSG | inactive
33 | EASNCFAIRHFENKFAVETLICRVTMSYKHTNRG | 2.38
34 | EASNCFAIRHFENKFAVETLICHRSRLYMGDDYL | 3.46
35 | EASNCFAIRHFENKFAVETLICAIVSSREARGGW | 4.64

same assay, conditions: random library (experiment): 3

Row | Sequence | amyloid nucleation score
36 | EASNCFAIRHFENKFAVETLICRIPWKYARSCGW | inactive
37 | EASNCFAIRHFENKFAVETLICLIVTWFSVLYGC | inactive
38 | EASNCFAIRHFENKFAVETLICLRGSCSYQFRVV | inactive
39 | EASNCFAIRHFENKFAVETLICGVGVFVR | inactive
40 | EASNCFAIRHFENKFAVETLICYFSQ | 8.17
41 | EASNCFAIRHFENKFAVETLICHR | inactive
42 | EASNCFAIRHFENKFAVETLICRSTAITSRSRCE | 1.23
43 | EASNCFAIRHFENKFAVETLICDVFNLRRRWLGA | inactive
44 | EASNCFAIRHFENKFAVETLICLFARLRRSRHML | inactive
45 | EASNCFAIRHFENKFAVETLICVGQDLPPHLGVS | inactive
46 | EASNCFAIRHFENKFAVETLICGSEIRRNSRVIG | inactive
47 | EASNCFAIRHFENKFAVETLICVCLMFLLRVSYR | inactive
48 | EASNCFAIRHFENKFAVETLICAPCHEARLRRWK | -0.127
49 | EASNCFAIRHFENKFAVETLICTQYWKCN | 3.23
50 | EASNCFAIRHFENKFAVETLICKSWFTAIRYLGA | 5.09
51 | EASNCFAIRHFENKFAVETLICLLGRMQ | 4.08
52 | EASNCFAIRHFENKFAVETLICGKSLRCRKWLMN | inactive
53 | EASNCFAIRHFENKFAVETLICPARNGHK | inactive
54 | EASNCFAIRHFENKFAVETLICWKGTMVVGSNWP | 0.238
55 | EASNCFAIRHFENKFAVETLICAVWRRCRSPFGV | 5.1
56 | EASNCFAIRHFENKFAVETLICYADSVGLPSSSR | 2.58
57 | EASNCFAIRHFENKFAVETLICVERWNCSGEWQR | 0.749
58 | EASNCFAIRHFENKFAVETLICPICR | inactive
59 | EASNCFAIRHFENKFAVETLICTMLRSERTSPRW | 3.86
60 | EASNCFAIRHFENKFAVETLICRCRIMR | inactive
